# Test results from PubChem BioAssay AID686979 (National Center for Advancing Translational Sciences (NCATS), 2013).
# Values joined by “and” are separate entries in the source; they are usually repeats but may differ in a detail not shown here. Equal values may be shown once. Among all 420,000 compounds or so, about 50,000 (12%) were called active. Inconclusive means that the source gave no clear call. Such entries were picked first, then a sample of the others. The call rests on the fitted dose curve; in most records, active means well fitted inhibition curve with a large enough effect; inconclusive means small, poorly fitted or top-dose-only effect; inactive means flat fitted curve, though single readings scatter. Potencies of inconclusive entries are left out as doubtful fits.
# Test: qHTS for Inhibitors of human tyrosyl-DNA phosphodiesterase 1 (TDP1): qHTS in cells in presence of CPT; further: nearly all actives have a fitted effect of over 55% in size
# Conditions: chicken DT40 Tdp1-/-;hTDP1 cells + 20 nM CPT, ATP luminescence, 48 h; activity change, negative = growth inhibition: at 46.2 µM (top of the series) unless noted
# In short: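 Chicken DT40 Tdp1-/- cells complemented with human TDP1, 400 cells/well, exposed to compounds plus 20 nM camptothecin for at least 48 h at 37 C; viability read as ATP content by CellTiter-Glo luminescence.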
# On the % scale 0 is the no-effect control and ±100 the full control effect; potency means the concentration at half of the fitted maximal effect; tags describe the fitted curve by direction and shape.
SMILES,Potency,"activity change, negative = growth inhibition"
COc1ccc(NC(=O)c2sc(=O)n(Cc3ccccc3C#N)c2C)cc1OC,"inconclusive [inhibitor, single point]",
COCCCn1c(SCc2ccccc2)nc2cc(OC)c(OC)cc2c1=N,active: 23.1 µM,
CN(C)c1ccc(/C=N/NC(=O)c2sccc2-n2cccc2)cc1,,inactive: -3.35%
Cc1ccc(NC(=O)CC(C)CC(=O)NCc2ccccc2)cc1Cl (stereo unspecified),active: 13 µM,
COC(=O)C(C)Oc1cc(OC(C)C(=O)OC)c2c(-c3ccccc3)cc(=O)oc2c1 (stereo unspecified),,inactive: -9.75%
Cc1onc(-c2c(F)cccc2Cl)c1C(=O)Nc1cc(S(=O)(=O)N2CCCCC2)ccc1O,active: 16.4 µM,
COc1ccc(CN2C(=O)c3ccccc3C2C(=O)NC2CCC(C)CC2)c(OC)c1 (stereo unspecified),,inactive: -29.4%
COc1ccc(C(=O)OC/C(O)=C(\C#N)c2nc3ccccc3[nH]2)cc1S(=O)(=O)N1CCOCC1,,inactive: -21.8%
CCOC(=O)C1=C(CS(=O)(=O)c2ccc(F)cc2)NC(=O)NC1c1ccc(OCC)c(OC)c1 (stereo unspecified),,inactive: -3.11%
COc1ccccc1NC(=O)c1ccccc1C(=O)Nc1ccccc1OC,"inconclusive [inhibitor, single point]",
CC(C)Oc1ccc(S(=O)(=O)N2CCCCC2)cc1NC(=O)C1=NN(c2ccccc2)C(=O)CC1,"inconclusive [inhibitor, single point]",
c1ccc(NCCSc2nc3ccccc3s2)cc1,,inactive: -2.89%
Cc1ccn(CCC(=O)N2CCCC(N3CCN(c4ccccc4C)CC3)C2)n1 (stereo unspecified),"inconclusive [inhibitor, single point]",
Cc1ccc(S(=O)(=O)N2CCC(c3ccncc3)CC2)c(C)c1,active: 20.6 µM,
CCOc1ccccc1NC(=O)C(Sc1nnnn1C)c1ccccc1 (stereo unspecified),,inactive: -4.56%
Cn1c(=O)c2c(n(C)c1=O)=NC1(CCCCC1)ON=2,,inactive: -5.11%
CSc1nc(N)nc2c1ncn2C1OC(CO)CC1O (stereo unspecified),"inconclusive [inhibitor, partial curve, poor fit]",
COc1ccccc1-n1c(=O)c2c3c(sc2n2c(SC(C)C)nnc12)CCC3,"inconclusive [inhibitor, single point]",
CC(C)Cc1ccc(C(=O)NCc2ccc3c(c2)OCO3)o1,,inconclusive: -31.3% [inhibitor]
C[C@@H]1CN([C@H](C)CO)C(=O)c2cc(NC(=O)Cc3ccccc3)ccc2O[C@H]1CN(C)Cc1ccc(Oc2ccccc2)cc1,"inconclusive [inhibitor, single point]",
Cn1c(SCc2ccccc2)nnc1C1CCCN(Cc2cccc3ncccc23)C1 (stereo unspecified),"inconclusive [inhibitor, single point]",
COc1cc(N)c(C(O)c2nccc3cc(OC)c(OC)cc23)cc1OC (stereo unspecified),"inconclusive [inhibitor, single point]",
COc1ccc(C(CNC(=O)COc2cccc(C(F)(F)F)c2)N2CCCC2)cc1 (stereo unspecified),"inconclusive [inhibitor, single point]",
CC(=O)NCc1ccc(S(=O)(=O)N2CCN(c3ccccn3)CC2)cc1,,inactive: -28.4%

SMILES,Potency,"activity change, negative = growth inhibition"
Cc1ccc(S(=O)(=O)N(C)c2ccc(OCc3cccc(C)c3)cc2)cc1,"inconclusive [inhibitor, single point]",
CCOC(=O)c1c(C)c(C(=O)NC(C)COC)c(C)n1C (stereo unspecified),,inactive: -4.8%
CCOc1ccc(-n2nc3cc(C)c(N)cc3n2)cc1,,inactive: 0.504%
CC(C)[C@H](NC(=O)c1ccco1)C(=O)N(C)Cc1ccc(C(F)(F)F)cc1,"inconclusive [inhibitor, single point]",
Cc1ccccc1C(=O)OC1OC(=O)C(Cl)=C1Nc1ccccc1 (stereo unspecified),"inconclusive [inhibitor, single point]",
CC(=O)Nc1ccc(C2Nc3c(C)cc(C)cc3-c3cc(C)nn32)cc1 (stereo unspecified),active: 18.4 µM,
CC1Sc2ccc(S(=O)(=O)N(C)Cc3ccccc3)cc2NC1=O (stereo unspecified),,inactive: -19.1%
O=[N+]([O-])c1ccc(OCC(O)CN2CCN(c3ccccc3F)CC2)cc1 (stereo unspecified),"inconclusive [inhibitor, single point]",
COc1ccccc1-c1cc(C(F)(F)F)n2ncc(S(=O)(=O)c3ccccc3)c2n1,"inconclusive [inhibitor, single point]",
COC(=O)c1sc(C(F)(F)F)c(-c2ccccc2)c1S(=O)(=O)NC(C)(C)C,"inconclusive [inhibitor, single point]",
Cc1ccc([C@H]2C(C#N)=C(N)Oc3cc(C)oc(=O)c32)o1,active: 16.4 µM,
O=C(Cn1cncn1)N/N=C/c1cccnc1,,inactive: 12.8%
CC(C)(C)CC(C)(C)c1ccc(OCCOCC[N+](C)(C)Cc2ccccc2)cc1,active: 2.37 µM and active: 3.66 µM and active: 4.11 µM,
CCOCCCNC(=O)CN1C(=O)/C(=C\c2ccc(C)cc2)Sc2ccccc21,active: 20.6 µM,
Cc1cc(C)cc(Nc2sc(C(=O)c3ccccc3)c(N)c2S(=O)(=O)c2ccccc2)c1,,inactive: -24.2%
CCOC(=O)c1c(C)oc2nc(C)nc(NCc3ccccc3OCC)c12,"inconclusive [inhibitor, single point]",
Cc1ccc(OCC(=O)Nc2nnc(C3CCCO3)s2)c(Br)c1 (stereo unspecified),,inactive: -3.12%
CCOC(=O)c1ccc(NC(=O)C(Cc2ccccc2)NS(=O)(=O)c2ccc(Br)s2)cc1 (stereo unspecified),,inactive: 1.82%
CCOc1ccc(C(C)=O)cc1COC(=O)CN1C(=O)NC2(CCCC2)C1=O,"inconclusive [inhibitor, single point]",
O=P(O)(O)C(O)c1ccc2ccccc2c1 (stereo unspecified),,inactive: 0.0947%
COc1ccc2c(c1)N(C)C(=O)CC(c1ccccc1)=N2,"inconclusive [inhibitor, single point]",
Cc1ccc(NC(=O)C2CCCN(S(=O)(=O)c3c(C)noc3C)C2)c(C)c1 (stereo unspecified),"inconclusive [inhibitor, single point]",
CC(C)(C)c1cc(-n2ccnc2)n2ncc(-c3ccc(Cl)cc3)c2n1,"inconclusive [inhibitor, single point]",
Cc1cc(C)n2c(Nc3ccc4c(c3)OCCO4)c(-c3ccccn3)nc2n1,"inconclusive [inhibitor, single point]",

SMILES,Potency,"activity change, negative = growth inhibition"
COc1cc2c(c(OC)c1OC)C(=O)C(=Cc1ccccc1)O2,"inconclusive [inhibitor, single point]",
O=C(NCc1ccccc1)c1nc[nH]c1C(=O)N1CCc2ccccc2C1,"inconclusive [inhibitor, single point]",
CC1=C(C(=O)N2CCCCCC2)CC(CC(=O)NC2CCCC2)C(=O)N1Cc1ccc(F)cc1 (stereo unspecified),,inactive: -23%
Cc1ccccc1NC(=O)CN1C(=O)CSc2ccc(S(=O)(=O)N3CCCC3)cc21,,inactive: 1.97%
Cn1c(=O)c2c(ncn2CC(COCc2ccc(Cl)cc2)OCc2ccc(Cl)cc2)n(C)c1=O (stereo unspecified),active: 23.1 µM,
Cc1noc(C)c1C(=O)Nc1ccccc1N1CCCC1,"inconclusive [inhibitor, single point]",
O=S(=O)(c1cc(Cl)c(Cl)cc1Cl)N1CCN2CCCC2C1 (stereo unspecified),"inconclusive [inhibitor, single point]",
COc1ccccc1N(C)S(=O)(=O)c1ccc(C(=O)N2CCCc3ccccc32)cc1,active: 20.6 µM,
O=C(NCc1ccccc1)c1cc(C2CCCN(C(=O)CCc3ccccc3)C2)on1 (stereo unspecified),,inactive: -19.3%
CCOc1ccc(S(=O)(=O)NCc2ccc3c(c2)OCO3)cc1,,inactive: -18.1%
CN(C)c1cccc(C(=O)N(Cc2ccccc2)Cc2ccccc2)c1,"inconclusive [inhibitor, single point]",
CCCc1nc2ccccc2n2c(-c3cccc(C)c3)c3c(=O)n(C)c(=O)n(C)c3c12,"inconclusive [inhibitor, single point]",
O=C(NCc1cc(C(F)(F)F)cc(C(F)(F)F)c1)C1CC(c2ccccc2F)=NO1 (stereo unspecified),"inconclusive [inhibitor, single point]",
CCOc1ccccc1N1CCN(CC(O)COC2CCCc3ccccc32)CC1 (stereo unspecified),"inconclusive [inhibitor, single point]",
O=C(Nc1ccc(N2CCOCC2)c(S(=O)(=O)Nc2ccc(Cl)cc2)c1)c1cnccn1,active: 16.4 µM,
O=C(NCc1ccccc1Cl)C1CCCN(c2ncnc3onc(-c4ccc(F)cc4)c23)C1 (stereo unspecified),"inconclusive [inhibitor, single point]",
O=C(Nc1nnc(-c2ccccc2Cl)o1)c1cccnc1,"inconclusive [inhibitor, partial curve]",
COc1cc(CNc2ncnc3c2ncn3[C@H]2CN(Cc3cccc(C(F)(F)F)c3)C[C@@H](CO)O2)cc(OC)c1OC,active: 18.4 µM,
C=CC[N+]1([C@H]2C[C@H]3[C@@H]4CC[C@H]5C[C@H](O)[C@@H](N6CCOCC6)C[C@]5(C)[C@H]4CC[C@]3(C)[C@H]2OC(C)=O)CCCC1,,inactive: 2.44%
CCOc1cccc(=O)c2c(C)oc(C)c12,"inconclusive [inhibitor, single point]",
O=C(NCc1ccccc1Cl)NCc1noc2ccccc12,"inconclusive [inhibitor, partial curve]",
CSc1ccc(CNC(=O)c2ccc(NC(=O)c3nsc4ccccc34)cc2)cc1,"inconclusive [inhibitor, single point]",
COc1ccc(S(=O)(=O)N2CCC[C@H]2C(=O)N2CCC[C@H]2C(=O)NCc2ccc(F)cc2F)cc1C,"inconclusive [inhibitor, single point]",
